Experimental data from patent US20220117938A1, “COMBINATON THERAPY WITH A DON PRODRUG AND AN IMMUNE CHECKPOINT INHIBITOR” (DRACEN PHARMACEUTICALS, INC., priority 2019, published 2022).
This continues a long series; more values of the same kind are listed elsewhere.

Experiments:
[1] = test system: MC-38 tumors; assay: Anti-tumor efficacy of Compound 1 with and without anti-PD-1 in the subcutaneous MC-38 model (Example 2D); assay type: in vivo, Mus musculus
Description: Female C57BL/6 mice were inoculated subcutaneously at right flank with MC-38 cells for tumor development. Five days after tumor inoculation, 48 mice with tumor size ranging from 50-100 mm^3 (average tumor size 72 mm^3) were selected and assigned into six groups using stratified randomization with 8 mice per group based upon their tumor volumes. The treatments were started from the day of randomization (defined as D0), Group 1 was treated with Vehicle (Tween 80:Ethanol:Saline—5:5:90 v/v/v), s.c., qd×14, Group 2 was treated with Anti-PD-1 10 mg/kg i.p. q4d×4, Group 3 was treated with Compound 1 0.3 mg/kg s.c. q.d.×14, Group 4 was treated with Compound 1 0.3 mg/kg s.c. q.d.×14+Anti-PD-1 10 mg/kg i.p. q4d×4, Group 5 was treated with Compound 1 1 mg/kg s.c. q.d.×14, Group 6 was treated with Compound 1 1 mg/kg s.c. q.d.×14+Anti-PD-1 10 mg/kg i.p. q4d×4. The tumor sizes were measured three times per week during the treatment. The entire study was terminated on D37 after start of the treatment.
Animal Species: Mus musculus; Strain: […]; Age: 6-8 weeks; Sex: female; Body weight (at treatment start): 18-22 g.
The MC-38 tumor cells were maintained in vitro as a monolayer culture in DMEM medium supplemented with 10% heat inactivated fetal bovine serum and 100 μg/mL penicillin streptomycin at 37° C. in an atmosphere of 5% CO2 in air. The tumor cells were routinely subcultured twice weekly by trypsin-EDTA treatment. The cells growing to a confluency around 70%-80% were harvested and counted for tumor inoculation. The cultured MC-38 were harvested, re-suspended in base medium at a density of 1×10^7 cells/mL with viability >90%. Each mouse was inoculated subcutaneously at the right flank with 1×10^6 cells in 0.1 ml base medium for tumor development.
The treatments were started on day 5 after tumor inoculation when the tumor size reached 50-100 mm^3 (average tumor size 72 mm^3). Each group consisted of 8 tumor bearing mice.
The testing article was administrated at the dosing volume indicated to the mice according to the predetermined regimen as shown Table 2D-1. Testing article formulations were prepared according to standard procedures. Details regarding tumor measurements and endpoints, and statistical analysis are provided in EXAMPLE 3.
Tumor sizes were measured three times a week in two dimensions using a caliper, and the volume expressed in mm^3 using the formula: V=0.5 a×b^2 where a and b are the long and short diameters of the tumor, respectively. The tumor sizes were then used for the calculations of both tumor growth inhibition (TGI) and T/C values.
TGI is calculated for each group using the formula: […]
TVTreatment_DayN is the average tumor volume of a treatment group on a given day, TVTreatment_Day0 is the average tumor volume of the treatment group on the first day of treatment, TVVehicle_DayN is the average tumor volume of the vehicle control group on a given day, and TVVehicle_Day0 is the average tumor volume of the vehicle group on the first day of treatment.
The T/C value (in percent) is an indication of antitumor effectiveness, T/C (%)=RTVTreatment/RTVControl×100% (RTVTreatment: the mean RTV of the treatment group; RTVControl: the mean RTV of the vehicle treated group). RTV (relative tumor volume)=TVDayN/TVDay0. TVDayN and TVDay0 is the tumor volume on day N and Day 0 respectively. T/C (%)≤42% is considered as significant antitumor activity and <10% is considered as highly significant antitumor activity by the National Cancer Institute criteria.
Animal survival curve: When an individual animal reached to the termination endpoint (TV>2000 mm^3), the mouse was euthanized. The time from treatment initiation to the termination was deemed as its survival time. Survival curve was plotted by Kaplan-Meier method. Median survival time (MST) was calculated for each group. Increase of life span (ILS) was calculated according to the following formula: […]
ILS (%)>25% is considered as a biologically significant survival benefit. […]

[2] = test system: CT26.WT tumors; assay: Anti-tumor efficacy of Compound 1 and Compound 1 in combination with anti-PD-1 in the CT26.WT syngeneic model (Example 10); assay type: in vivo, mice
Description: Female BALB/c mice were inoculated subcutaneously in the right flank with CT26.WT cells for tumor development. Six days after tumor inoculation, mice with tumor sizes ranging from 30-81 mm^3 (average tumor size 55 mm^3) were selected and assigned into 10 groups using stratified randomization with 8 mice per group based upon their tumor volumes. The treatments were started from the day of randomization (defined as D0), Group 1 was treated with Vehicle control, 10 mpk, SC, qd 5 days on (Mon-Fri)×4 cycles; Group 2 was treated with Anti-PD-1, 10 mpk, IP, q4d×6; Group 3 was treated with Compound 1, 1.4 mpk, SC, qd 5 days on (Mon-Fri)×4 cycles; Group 4 was treated with Compound 1+anti-PD-1, 1.4 mpk+10 mpk, SC, qd 5 days on (Mon-Fri)×4 cycles+IP, q4d×6; Group 5 was treated with Compound 1, 10.5 mpk, IV, biw (Mon, Thu)×4 cycles; Group 6 was treated with Compound 1+anti-PD-1, 10.5 mpk+10 mpk, IV, biw (Mon, Thu)×4 cycles+IP, q4d×6; Group 7 was treated with Compound 1, 7 mpk IV, tiw (Mon, Wed, Fri)×4 cycles; Group 8 was treated with Compound 1+anti-PD-1, 7 mpk+10 mpk, IV, tiw (Mon, Wed, Fri)×4 cycles+IP, q4d×6; Group 9 was treated with Compound 1, 7 mpk IV, tiw (Mon, Tue, Wed)×4 cycles; and Group 10 was treated with Compound 1+anti-PD-1, 7 mpk+10 mpk, IV, tiw (Mon, Tue, Wed)×4 cycles+IP, q4d×6. The tumor sizes were measured three times per week during the treatment. Survival was monitored with tumor volume exceeding 2000 mm^3 as endpoint. The entire study was terminated on D56 after start of the treatment. All treatments were well-tolerated without any adverse effects or significant body weight loss.

CC(=O)N[C@@H](Cc1c[nH]c2ccccc12)C(=O)N[C@@H](CCC(=O)C=[N+]=[N-])C(=O)OC(C)C [Compound 1, Isopropyl (S)-2-((S)-2-acetamido-3-(1H-indol-3-yl)propanamido)-6-diazo-5-oxohexanoate]
Tumor volume (Mean ± SEM) ([1]; Day 0, Cpd. 1 0.3 mg/kg qd x 14, s.c.): 71 ± 6 mm^3 | Tumor volume (Mean ± SEM) ([1]; Day 0, Cpd. 1 1 mg/kg qd x 14, sc): 71 ± 6 mm^3 | Tumor volume (Mean ± SEM) ([1]; Day 2, Cpd. 1 0.3 mg/kg qd x 14, s.c.): 88 ± 5 mm^3 | Tumor volume (Mean ± SEM) ([1]; Day 2, Cpd. 1 1 mg/kg qd x 14, sc): 86 ± 4 mm^3 | Tumor volume (Mean ± SEM) ([1]; Day 5, Cpd. 1 0.3 mg/kg qd x 14, s.c.): 101 ± 5 mm^3 | Tumor volume (Mean ± SEM) ([1]; Day 5, Cpd. 1 1 mg/kg qd x 14, sc): 91 ± 5 mm^3 | Tumor volume (Mean ± SEM) ([1]; Day 7, Cpd. 1 0.3 mg/kg qd x 14, s.c.): 131 ± 8 mm^3 | Tumor volume (Mean ± SEM) ([1]; Day 7, Cpd. 1 1 mg/kg qd x 14, sc): 89 ± 3 mm^3 | Tumor volume (Mean ± SEM) ([1]; Day 9, Cpd. 1 0.3 mg/kg qd x 14, s.c.): 144 ± 13 mm^3 | Tumor volume (Mean ± SEM) ([1]; Day 9, Cpd. 1 1 mg/kg qd x 14, sc): 65 ± 4 mm^3 | Tumor volume (Mean ± SEM) ([1]; Day 12, Cpd. 1 0.3 mg/kg qd x 14, s.c.): 131 ± 15 mm^3 | Tumor volume (Mean ± SEM) ([1]; Day 12, Cpd. 1 1 mg/kg qd x 14, sc): 38 ± 4 mm^3 | Tumor volume (Mean ± SEM) ([1]; Day 14, Cpd. 1 0.3 mg/kg qd x 14, s.c.): 171 ± 32 mm^3 | Tumor volume (Mean ± SEM) ([1]; Day 14, Cpd. 1 1 mg/kg qd x 14, sc): 15 ± 5 mm^3 | Tumor volume (Mean ± SEM) ([1]; Day 16, Cpd. 1 0.3 mg/kg qd x 14, s.c.): 198 ± 36 mm^3 | Tumor volume (Mean ± SEM) ([1]; Day 16, Cpd. 1 1 mg/kg qd x 14, sc): 28 ± 7 mm^3 | Tumor volume ([2]; Group 3, 1.4 mpk SC qd Mon-Fri x4 cycles, day 4): 55 ± 5 mm^3 | Tumor volume ([2]; Group 3, 1.4 mpk SC qd Mon-Fri x4 cycles, day 7): 89 ± 9 mm^3 | Tumor volume ([2]; Group 3, 1.4 mpk SC qd Mon-Fri x4 cycles, day 9): 108 ± 11 mm^3 | Tumor volume ([2]; Group 5, 10.5 mpk IV biw x4 cycles, day 4): 56 ± 7 mm^3 | Tumor volume ([2]; Group 5, 10.5 mpk IV biw x4 cycles, day 7): 71 ± 12 mm^3 | Tumor volume ([2]; Group 5, 10.5 mpk IV biw x4 cycles, day 9): 92 ± 13 mm^3 | Tumor volume ([2]; Group 7, 7 mpk IV tiw (Mon,Wed,Fri) x4 cycles, day 4): 74 ± 12 mm^3 | Tumor volume ([2]; Group 7, 7 mpk IV tiw (Mon,Wed,Fri) x4 cycles, day 7): 81 ± 14 mm^3 | Tumor volume ([2]; Group 7, 7 mpk IV tiw (Mon,Wed,Fri) x4 cycles, day 9): 106 ± 21 mm^3 | Tumor volume ([2]; Group 9, 7 mpk IV tiw (Mon,Tue,Wed) x4 cycles, day 2): 40 ± 2 mm^3 | Tumor volume ([2]; Group 9, 7 mpk IV tiw (Mon,Tue,Wed) x4 cycles, day 4): 48 ± 5 mm^3 | Tumor volume ([2]; Group 9, 7 mpk IV tiw (Mon,Tue,Wed) x4 cycles, day 7): 53 ± 8 mm^3 | Tumor volume ([2]; Group 9, 7 mpk IV tiw (Mon,Tue,Wed) x4 cycles, day 9): 58 ± 14 mm^3
